Hit rate of the full screen: of about 310,000 compounds, about 2,200 (0.71%) showed an effect of 50% or more. Effects have a minus sign here. The list shows a part of the results.

human ether-à-go-go-related gene (hERG) potassium channel, sequence (Q12809 whole entry, looked up): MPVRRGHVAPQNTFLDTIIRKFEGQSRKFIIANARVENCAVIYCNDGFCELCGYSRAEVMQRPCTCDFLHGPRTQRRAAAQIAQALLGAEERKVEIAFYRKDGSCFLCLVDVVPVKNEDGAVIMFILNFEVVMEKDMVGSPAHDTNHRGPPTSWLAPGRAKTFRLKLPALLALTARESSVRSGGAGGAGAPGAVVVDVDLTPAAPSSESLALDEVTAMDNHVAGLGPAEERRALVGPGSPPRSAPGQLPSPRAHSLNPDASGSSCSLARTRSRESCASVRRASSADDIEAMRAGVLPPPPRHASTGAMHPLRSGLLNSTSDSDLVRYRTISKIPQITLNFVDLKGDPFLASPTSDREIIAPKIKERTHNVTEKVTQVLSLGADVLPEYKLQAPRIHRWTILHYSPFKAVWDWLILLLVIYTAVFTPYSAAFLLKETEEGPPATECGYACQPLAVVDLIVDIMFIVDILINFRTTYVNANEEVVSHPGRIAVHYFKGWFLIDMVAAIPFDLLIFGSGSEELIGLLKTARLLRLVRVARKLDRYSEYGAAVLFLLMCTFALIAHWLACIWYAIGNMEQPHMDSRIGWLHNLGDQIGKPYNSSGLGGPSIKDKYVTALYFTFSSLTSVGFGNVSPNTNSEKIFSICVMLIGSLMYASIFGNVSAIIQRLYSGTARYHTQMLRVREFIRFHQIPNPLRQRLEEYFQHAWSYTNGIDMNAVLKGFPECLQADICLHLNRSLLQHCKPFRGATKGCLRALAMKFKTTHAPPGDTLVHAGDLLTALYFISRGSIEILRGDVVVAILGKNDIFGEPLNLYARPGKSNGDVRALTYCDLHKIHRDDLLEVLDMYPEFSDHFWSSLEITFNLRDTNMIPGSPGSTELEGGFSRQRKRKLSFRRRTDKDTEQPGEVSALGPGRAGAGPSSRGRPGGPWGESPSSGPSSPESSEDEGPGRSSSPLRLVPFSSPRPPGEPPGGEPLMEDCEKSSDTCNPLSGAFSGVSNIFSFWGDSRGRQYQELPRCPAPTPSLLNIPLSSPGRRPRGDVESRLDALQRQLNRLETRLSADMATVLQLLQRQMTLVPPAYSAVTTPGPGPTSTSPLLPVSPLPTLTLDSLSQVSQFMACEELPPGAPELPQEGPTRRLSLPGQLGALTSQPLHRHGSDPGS

The assay addresses human ether-à-go-go-related gene (hERG) potassium channel (human, UniProt Q12809). Kind of assay: primary screen, population patch clamp on CHO cells stably expressing hERG.
Turning to `O=C(O)c1cc(O)c2c(c1)[C@@H]([C@H]1c3cc(C(=O)O)cc(O)c3C(=O)c3c(O[C@@H]4O[C@H](CO)[C@@H](O)[C@H](O)[C@H]4O)cccc31)c1cccc(OC3O[C@H](CO)[C@@H](O)[C@H](O)[C@H]3O)c1C2=O` (some centres unmarked), the “hERG current change (%, negative = inhibition) at 1uM” value is 6.01%.
Turning to `CCOc1ccccc1NC1=C(Cl)C(=O)N(Cc2ccccc2)C1=O`, the “hERG current change (%, negative = inhibition) at 1uM” value is -4.05%.
As for `O=C(NCCc1cccs1)C1CC(c2c(Cl)cccc2Cl)=NO1` (centres unmarked), the figure is 10.6%.
As for `CCN(CC)S(=O)(=O)c1cccc(C(=O)N[C@H](C(=O)NNC(=O)c2ccccc2)C(C)C)c1`, the figure is 11.1%; as for `COc1ccccc1Nc1nc(N)nc(-c2oc3ccccc3c2C)n1`, 6.09%.
To `CCCNC(=O)COC(=O)c1c2c(nc3ccccc13)CCC2` belongs 13.7%; to `CC1CN(C(=O)c2c(Br)cnn2C)CC(C)O1` (centres unmarked), 4.32%.
Consider `Cc1ccc(NC(=O)CCN2CCc3ccccc3C2)cc1.Cl`, for which the “hERG current change (%, negative = inhibition) at 1uM” value is -20%.
As for `O=C1CC(C(=O)O)S/C(=N\N=C\c2ccc(Br)cc2)N1` (centres unmarked), the figure is 6.37%; as for `Cn1c(C(=O)O)ccc1S(=O)(=O)N1CCCCCC1`, 10.3%; as for `CCOC(=O)c1cc(NC(=O)c2ccc(Cl)cc2)c(=O)oc1-c1ccccc1`, -9.79%.
For `Cc1ccc(C)c(-n2c(-c3csc(C)c3)n[nH]c2=S)c1`, the “hERG current change (%, negative = inhibition) at 1uM” value is given as 11.2%.
Take `N#C/C(=N\Nc1ccc(Cl)c(Cl)c1)C(=O)C1CC1`: the “hERG current change (%, negative = inhibition) at 1uM” value came out at 14.7%.
To `CCC(C)N(CCNC(=O)CC1Oc2ccc(C)cc2NC1=O)C1CCCCC1` (centres unmarked) belongs -58.1%.
To `CCCCC(=O)Nc1cc(C)c2c(=O)oc3ccccc3c2n1` belongs 12.2%; to `C/C(=N/N=C1/NC(=O)CC(C(=O)Nc2ccccc2)S1)c1cccs1` (centres unmarked), 7.65%.
For the molecule `Cc1ccc(NC2CCCN(C(=O)CSc3ccccn3)C2)cc1C` (centres unmarked), the “hERG current change (%, negative = inhibition) at 1uM” value came to 12.5%.
To `COc1cc(C(=O)O)ccc1OCC(=O)N1CCOCC1` belongs 2.74%; to `N#Cc1c(N)n(CCNC(=O)c2cccs2)c2nc3ccccc3nc12`, 10.7%; to `CCC(=O)Nc1c(C)nn(C(=O)CC)c1C`, -5.78%.
To `Cn1cccc1C(=O)OCC(=O)Nc1cccc(S(=O)(=O)N2CCOCC2)c1` belongs -3.88%; to `N#Cc1ccsc1NC(=O)C1CCN(S(=O)(=O)c2cccs2)CC1`, 11.2%.
As for `CCOc1ccccc1NC(=O)C1CCN(c2nc(-c3ccc(OC)cc3)no2)CC1`, the figure is 18.3%; as for `Cc1cc2cc(CN(CC3CCCO3)C(=O)c3cnccn3)c(=O)[nH]c2cc1C` (centres unmarked), 12.3%.
Consider `Cn1nc(-c2ccccc2)c(CO)c1Oc1ccc(F)cc1`, for which the “hERG current change (%, negative = inhibition) at 1uM” value is reported as -3.39%.
Take `CCc1ccc(C(C)NC(=O)C2CCCO2)cc1` (centres unmarked): the “hERG current change (%, negative = inhibition) at 1uM” value was determined as 8.63%.
To `COc1ccc(S(=O)(=O)N2CCOCC2)c(Cl)c1Cl` belongs -14.7%.
`Cc1nnc(SCC(=O)NCC(=O)Nc2ccc(F)c(F)c2F)n1Cc1ccccc1`: the “hERG current change (%, negative = inhibition) at 1uM” value is 17.9%.
As for `COc1ccc(C(=O)NCc2c(C)nn(Cc3ccccc3)c2C)cc1S(=O)(=O)N1CCOCC1`, the figure is 2.84%.
For `CC(=O)c1cc2ccc(O)cc2oc1=O`, the “hERG current change (%, negative = inhibition) at 1uM” value worked out at 11.5%.
As for `CN(Cc1nc(Cc2cccc(F)c2)no1)CC1COCCO1` (centres unmarked), the figure is 16.1%; as for `Cc1ccc(NC(=O)COC(=O)C2CCN(c3ccc(C(F)(F)F)cn3)CC2)cc1`, 4.87%.
As for `Br.Cc1ccc(Nc2nc(-c3ccc(S(=O)(=O)N4CCOCC4)cc3)cs2)cc1Cl`, the figure is 3.44%; as for `COc1cc(C2C(C(=O)c3ccc(C)o3)=C(O)C(=O)N2Cc2cccnc2)ccc1O` (centres unmarked), 12%; as for `COc1ccc(CCN2CC(C(=O)OCC(=O)NC(C)c3cccc(Cl)c3)CC2=O)cc1OC` (centres unmarked), 5%.
To `COC(=O)c1c(NC(=O)C2CCCCC2C(=O)O)sc2c1CCCCC2` (centres unmarked) belongs 1.8%.
Take `CCCn1nc(-c2ccccc2)c2nc3ccccc3nc21`: the “hERG current change (%, negative = inhibition) at 1uM” value is 8.01%.
As for `COc1ccccc1NC(=O)Cc1coc2cc(C)ccc12`, the figure is -3.83%.
To `O=C(c1cccc(N2CCCC2=O)c1)N1CCN(c2ccccc2)CC1` belongs 10.2%; to `CC12CCC(C(=O)Nc3nccs3)(OC1=O)C2(C)C` (centres unmarked), 1.47%; to `Cc1cc(Cl)ccc1NC(=O)CN1C(=O)NC2(CCCc3ccccc32)C1=O` (centres unmarked), 12%.
For the molecule `NC(=O)c1cc([N+](=O)[O-])ccc1NCc1cccc(N)c1`, the “hERG current change (%, negative = inhibition) at 1uM” value came to 12.6%.
For the molecule `O=C(O)CCSc1nnnn1-c1ccccc1`, the “hERG current change (%, negative = inhibition) at 1uM” value is on record as -2.77%.
As for `CSCCC(NC(=O)c1ccccc1Cl)C(=O)NNC(=O)c1ccccc1O` (centres unmarked), the figure is 11.7%; as for `Nc1ccc(Br)c[n+]1Cc1cccc2cccnc12.[Br-]`, -22%.
As for `COc1ccc(-c2nc3c(-c4ccccc4)cnn3cc2C)cc1F`, the figure is 5.15%; as for `COCCn1c(SCC(=O)N2CCCC2)nc2c([nH]c3ccccc32)c1=O`, -26%.
As for `CC(=O)c1sc2ccccc2c1OC(=O)c1ccco1`, the figure is 6.21%; as for `Cc1cc(C)c(S(=O)(=O)N2CCCCC2)c(C)c1-n1ncnn1`, 12.5%.
`O=C(CN1C(=O)CC(c2ccccc2)S(=O)(=O)c2ccccc21)N1CCCC1` (centres unmarked): the “hERG current change (%, negative = inhibition) at 1uM” value worked out at 11.4%.
As for `O=S(=O)(NC1CCCCC1)c1cccc2nsnc12`, the figure is 18.5%; as for `Cc1c(C(=O)Nc2c(F)cc(F)cc2Br)sc2ncn(CC(=O)N3CCCC3)c(=O)c12`, 23.2%.
As for `CCC(CC)C(=O)NCCc1ccc(S(N)(=O)=O)cc1`, the figure is 16.7%.
As for `O=C(COC(=O)C1CCN(S(=O)(=O)c2cccs2)CC1)c1cc2ccccc2o1`, the figure is 5.54%.
Turning to `O=C(CC(=O)N/N=C/c1ccccc1O)NCc1cccnc1`, the “hERG current change (%, negative = inhibition) at 1uM” value was -11.2%.
As for `CCCCc1c(C)c(C#N)c2[nH]c3ccccc3n2c1=O`, the figure is 18.9%.
To `CCc1ccc(C(O)(C(C)C)C(CN2CCOCC2)c2ccccc2)cc1.Cl` (centres unmarked) belongs 5.45%; to `O=C(CN1CCCCC1)N/N=C/c1ccc(Cl)cc1`, -22.5%.
As for `COC(=O)[C@@H](NC(=O)Nc1ccc(OC)cc1)C(C)C`, the “hERG current change (%, negative = inhibition) at 1uM” value worked out at 14.5%.
To `COc1ccc(Cl)cc1NC(=O)c1cc(C)no1` belongs 13.5%; to `O=C(NCC(=O)N(Cc1cccs1)C(C(=O)NC1CCCC1)c1cccnc1)c1ccco1` (centres unmarked), 11.3%; to `O=C(O)C(=O)O.O=[N+]([O-])c1cccc(OCCCN2CCC(Cc3ccccc3)CC2)c1`, -82.9%.
Take `O=S(=O)(c1c(F)cccc1F)N1CCN(C(=S)NCc2ccc3c(c2)OCO3)CC1`: the “hERG current change (%, negative = inhibition) at 1uM” value is listed as 27%.
On to `CC1=C(C(N)=O)C(c2cccnc2)n2nc(SCc3ccccc3Cl)nc2N1` (centres unmarked), for which the “hERG current change (%, negative = inhibition) at 1uM” value stood at 1.55%.
To `COc1ccc(CCNC(=O)c2ccc(N3CCCCS3(=O)=O)cc2)cc1OC` belongs 13.7%; to `COc1cccc(N/C(SCc2ccccc2Cl)=C(/C#N)C(=O)NCc2cccs2)c1`, 11.7%.
As for `COC(=O)C1=C(c2ccc(OC(F)(F)F)cc2)C[C@@H]2CC[C@H]1N2C(=O)NCCNC(C)=O`, the figure is 17.8%; as for `COc1ccc(-c2noc(C3CCCN(S(=O)(=O)c4cccc(Cl)c4)C3)n2)cc1OC` (centres unmarked), 2.69%; as for `Cc1ccc(S(=O)(=O)N(CC(=O)N=Nc2c(O)[nH]c3ccccc23)c2ccc(C)c(C)c2)cc1`, 10.9%.
To `CCN(C(=O)C1CCCN(c2nc(-c3ccc(OC)cc3)no2)C1)c1ccc(OC)cc1` (centres unmarked) belongs 10.4%; to `O=C(CSc1nc2ccccc2[nH]1)Nc1nc(-c2ccccc2)c(-c2ccccc2)o1`, 11.2%.
In the case of `COc1ccc(NC(=O)CN(C)CC(=O)N(C)C2(C#N)CCC(C)CC2)cc1` (centres unmarked), the “hERG current change (%, negative = inhibition) at 1uM” value was found to be 1.38%.
To `CCC(C)c1ccc(S(=O)(=O)N2CCN(C(C)CC(=O)O)CC2)cc1` (centres unmarked) belongs 8.4%; to `CCc1cc(=O)oc2cc3oc(C)c(C)c3cc12`, 1.03%; to `CCC(C)c1ccccc1N1CC(C(=O)Nc2ccc(N3CCOCC3)cc2)CC1=O` (centres unmarked), 9.32%.
To `CCOc1ccc(C2C(C#N)=C(N)Oc3cc(C)n(Cc4ccco4)c(=O)c32)cc1OC` (centres unmarked) belongs 9.37%; to `CC(C)C(C(=O)OCC(=O)c1ccc2c(c1)NC(=O)CO2)N1C(=O)c2ccccc2C1=O` (centres unmarked), -1.04%; to `Cc1c(C(=O)NCc2ccccn2)oc2c(Cl)cccc12`, -3.74%.
As for `Cc1nc2cc(C(=O)OCC(=O)NC3CCS(=O)(=O)C3)ccc2n1-c1ccccc1` (centres unmarked), the figure is 3.19%; as for `CCCCc1cc(=O)oc2cc(OCC(=O)Nc3ccccn3)ccc12`, 14.8%.
With `CSc1ccc(-c2nc(O)c3cnccn23)cc1`, the “hERG current change (%, negative = inhibition) at 1uM” value amounted to 11.3%.
Consider `CC(NC(=O)CSc1nnc(CC(=O)Nc2ccc(Cl)c(Cl)c2)n1C)c1ccccc1` (centres unmarked), for which the “hERG current change (%, negative = inhibition) at 1uM” value is 8.96%.
Turning to `CCOC(=O)C1CCCN(S(=O)(=O)c2cc3c4c(c2)CCC(=O)N4CCC3)C1` (centres unmarked), the “hERG current change (%, negative = inhibition) at 1uM” value came out at 8.71%.
As for `O=C(CNC(=O)c1ccccc1)Oc1ccc([N+](=O)[O-])cc1`, the figure is 12%; as for `Cc1cc(NC(=O)COC(=O)C2CCC2)no1`, 11.4%.
As for `CCn1c(=O)c(C(=O)CN2CCc3ccccc32)c(N)n(Cc2ccccc2)c1=O`, the figure is 0.0849%.

The values above are taken from paper PMC4336329 (PLoS ONE, 2015).
